Target: UNMODIFIED-SARS-CoV-2 Spike Protein (RBD)(R319-F541).mmH (SARS-CoV-2)
Experiment: Luminex bead binding, antibody supernatant
Conditions: remark: other sources report otherwise

| Binder | binding signal (MFI) |
| --- | --- |
| mAb10920 (antibody) heavy: QVQLVESGGGVVQPGRSLRLSCAASGFTFSYYGMHWVRQAPGKGLEWVAVIWYDGSNKFYADSVKGRFTISRDNSKNTLYLQMNSLRAEDTAVYYCAAARPGYYYGMDVWGQGTTVTVSS[human IgG1 constant region left out] light: DIQMTQSPSSLSASVGDRVTITCRASQGISNYLAWFQQKPGKAPNSLIYAASSLQRGVPSKFSGSGSGTDFTLTISSLQPEDFATYYCQQYNSYPRTFGQGTKVEIKRTVAAPSVFIFPPSDEQLKSGTASVVCLLNNFYPREAKVQWKVDNALQSGNSQESVTEQDSKDSTYSLSSTLTLSKADYEKHKVYACEVTHQGLSSPVTKSFNRGEC | 35500 |
| mAb10930 (antibody) heavy: EVQLVESGGGLVQPGRSLRLSCAASGFTFDDYAMYWVRQAPGKGLEWVSGISWNSGSIGYADSVKGRFTISRDNAKNSLYLQMNSLRAADTALYYCAKDKDWNSRGYYYYGMDVWGQGTTVTVSS[human IgG1 constant region left out] light: [about 100 residues left out][about 100 residues left out] | 29500 |
| mAb10934 (antibody) heavy: [about 100 residues left out]ARWDWYFDLWGRGTLVTVSS[human IgG1 constant region left out] light: DIQMTQSPSSLSASVGDRVTITCQASQDIWNYINWYQQKPGKAPKLLIYDASNLKTGVPSRFSGSGSGTDFTFTISSLQPEDIATYYCQQHDDLPPTFGQGTKVEIKRTVAAPSVFIFPPSDEQLKSGTASVVCLLNNFYPREAKVQWKVDNALQSGNSQESVTEQDSKDSTYSLSSTLTLSKADYEKHKVYACEVTHQGLSSPVTKSFNRGEC | 33100 |
| mAb10938 (antibody) heavy: EVQLVESGGGLVQPGGSLRLSCAVSGFTVSSNYMSWVRQAPGKGLEWVSLIYSGGSTFYADSVKGRFTISRHNSKNTLYLQMNSLRAEDTAVYYCAREGGYSYDYNYWGQGTLVTVSS[human IgG1 constant region left out] light: DIQMTQSPSSLSASVGDRVTITCQASQDIRNYLNWYQQKPGKAPKLLIYDASNLETGVPSRFSGIGSGTDFTFTISSLQPEDIATYYCQQYDNLPITFGQGTRLEIKRTVAAPSVFIFPPSDEQLKSGTASVVCLLNNFYPREAKVQWKVDNALQSGNSQESVTEQDSKDSTYSLSSTLTLSKADYEKHKVYACEVTHQGLSSPVTKSFNRGEC | 34500 |
| mAb10935 (antibody) heavy: EVQLVESGGGLVQPGGSLRLSCAASGFTVSSNYMSWVRQAPGKGLEWVSLIYSGGSTYYADSVKGRFTISRHNSKNTLYLQMNSLRSEDTAVYYCARVPLGDYYYGMDVWGQGTTVTVSS[human IgG1 constant region left out] light: DIQMTQSPSSLSASVGDRVTITCQASQDINKYLNWYQQKPGKAPKLLIYDASNLETGVPSRFSGSGSGTDFTFTISSLQPEDIATYYCQQSDNLPLTFGGGTKVEIKRTVAAPSVFIFPPSDEQLKSGTASVVCLLNNFYPREAKVQWKVDNALQSGNSQESVTEQDSKDSTYSLSSTLTLSKADYEKHKVYACEVTHQGLSSPVTKSFNRGEC | 31900 |
| mAb10964 (antibody) heavy: QVQLQESGPGLVKPSETLSLTCTVSGGSINNYYWIWIRQPPGKGLEWIGYIYHSGSTNYNPSLKSRVTISVDTSKNQFSLKVSSVTAADTAVYYCANMVRGVYEDDYWGQGTLVTVSS[human IgG1 constant region left out] light: DIQMTQSPSSLSASVGDRVTITCRASQSISNYLNWYQQKPGKAPKLLIFAASSLRSGVPSRFSGSGSGTDFTLTISSLHPEDFATYYCQQNYNTPLTFGPGTKVDIKRTVAAPSVFIFPPSDEQLKSGTASVVCLLNNFYPREAKVQWKVDNALQSGNSQESVTEQDSKDSTYSLSSTLTLSKADYEKHKVYACEVTHQGLSSPVTKSFNRGEC | 30000 |
| mAb10921 (antibody) heavy: EVQLVESGGGLVQPGGSLRLSCAASGITVSSNYMSWVRQAPGKGLEWVSVIYSGGSTFYADSVKGRFTISRHNSKNTLYLQMNSLRAEDTAVYYCARERNFDAFDIWGQGTMVTVSS[human IgG1 constant region left out] light: DIQMTQSPSSVSASVGDRVTITCRASQGISSWLAWYQQKPGKAPKLLIYAASSLQSGVPSRFSGSGSGTDFTLTISSLQPEDFATYYCQQANSFPLFTFGPGTKVDIKRTVAAPSVFIFPPSDEQLKSGTASVVCLLNNFYPREAKVQWKVDNALQSGNSQESVTEQDSKDSTYSLSSTLTLSKADYEKHKVYACEVTHQGLSSPVTKSFNRGEC | 31700 |
| mAb10966 (antibody) heavy: EVQLVESGGGLVQPGGSLRLSCAASGLTVSSNYMSWVRQAPGKGLEWVSVIYSGGSTFYADSVKGRFTISRDNSKNTLYLQMNSLRPEDTAVYYCAREGRIAATGYGMDVWGQGTTVTVSS[human IgG1 constant region left out] light: DIQMTQSPSSLSASVGDRVTITCQASQDISNYLNWYQQKPGKAPKLLIYDASNLGTGVPSRFSGSRSGTDFTFTISSLQPEDIATYYCHQYDNLPQTFGPGTKVDIKRTVAAPSVFIFPPSDEQLKSGTASVVCLLNNFYPREAKVQWKVDNALQSGNSQESVTEQDSKDSTYSLSSTLTLSKADYEKHKVYACEVTHQGLSSPVTKSFNRGEC | 29500 |
| mAb10954 (antibody) heavy: EVQLVESGGGLVQPGGSLRLSCAASGITVSSNYMSWVRQAPGKGLEWVSLIYSGGSTYYADSVKGRFTISRDNSKNTLYLQMNSLRVEDTAVYYCARDHGMAAAGYNYWGQGTLVTVSS[human IgG1 constant region left out] light: DIQMTQSPSSLSASVGDRVTITCQASQDINKYLNWYQQKPGKAPKLLIYDASNLETGVPSRFSGSGSGTDFTFTINSLQPEDFATYFCQQYDNLPPAFGQGTKVEIKRTVAAPSVFIFPPSDEQLKSGTASVVCLLNNFYPREAKVQWKVDNALQSGNSQESVTEQDSKDSTYSLSSTLTLSKADYEKHKVYACEVTHQGLSSPVTKSFNRGEC | 28500 |
| mAb10955 (antibody) heavy: EVQLVESGGGLVQPGGSLRVSCAASGFTVSRNYMSWVRQAPGKGLEWVSVIYSGGSTFYADSVKGRFTISRDNSKNTLYLQMNSLRAEDTAIYYCARYIPRFDPWGQGTLVTVSS[human IgG1 constant region left out] light: DIQMTQSPSSLSASVGDRVTITCQASQDISNYLNWFQQKPGRAPKLLIYDASNLETGVPSRFSGSGSGTDFTFTISSLQPEDIATYYCQQYDNLPITFGQGTRLEIKRTVAAPSVFIFPPSDEQLKSGTASVVCLLNNFYPREAKVQWKVDNALQSGNSQESVTEQDSKDSTYSLSSTLTLSKADYEKHKVYACEVTHQGLSSPVTKSFNRGEC | 28600 |
| mAb11010 (antibody) heavy: QVQLVESGGGVVQPGRSLRLSCAASGFTFSSYGMHWVRQAPGKGLEWVAVISYDGSYKYYADSVKGRFTISRDNSKNTLYLQMNSLRAEDTAVYYCAIDGGTVTTIFDYWGQGTLVTVSS[human IgG1 constant region left out] light: [about 100 residues left out][about 120 residues left out] | 6390 |
| mAb11004 (antibody) heavy: QVQLVESGGGVVQPGRSLRLSCVASGFTFSIYGMDWVRQAPGKGLEWVAVISYDGSNKYYADSVKGRFTISRDNSKNTLYLQMNSLRPEDTAVYYCAKDREAAADAFDIWGQGTMVTVSS[human IgG1 constant region left out] light: DIQMTQSPSSVSASVGDRVTITCRASQGISSWLAWYQQKPGKAPKLLIYAASSLHSGVPSRFSGSGSGTDFTLTISSLQPEDFATYYCQQANSFRLTFGGGTKVEIKRTVAAPSVFIFPPSDEQLKSGTASVVCLLNNFYPREAKVQWKVDNALQSGNSQESVTEQDSKDSTYSLSSTLTLSKADYEKHKVYACEVTHQGLSSPVTKSFNRGEC | 6510 |

From patent US20260234738A1
